Values joined by “and” are separate entries in the source; they are usually repeats but may differ in a detail not shown here. Equal entries are not always repeated. Inconclusive results, whose numbers are uncertain, are shown with a selection of clear calls. For some of these results: Where the call is inconclusive, the potency comes from a doubtful curve fit. Active and inactive are the calls of the source. Unless noted, the call rests on the fitted dose curve; in most records, active means well fitted curve in the direction sought with a large enough effect in the repeat runs; inconclusive means weak or mixed curves; inactive means no such curve, though single readings can be large; an effect the other way counts as inactive or inconclusive.
What was measured:
[1] = qHTS assay to identify small molecule antagonists of the peroxisome proliferator-activated receptor gamma (PPARg) signaling pathway - cell viability counter screen (AID 743194); conditions: PPARg-bla HEK293H viability, CellTiter-Glo luminescence, 17 h; Potency: co-treated with 50 nM rosiglitazone unless noted; activity change, negative = cytotoxicity: at 62.6 µM (top of the series), co-treated with 50 nM rosiglitazone unless noted; further: potency means the concentration at half of the fitted maximal effect; nearly all actives have a fitted effect of over 55% in size
Summary of the method: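 Viability was measured as CellTiter-Glo luminescence in GeneBLAzer PPARg UAS-bla HEK293H cells. These cells had been exposed 17 h at 37 C to compounds together with rosiglitazone at 50 nM final, with the beta-lactamase readout taken in the same wells.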

[2] = qHTS assay for small molecule agonists of the antioxidant response element (ARE) signaling pathway (AID 743202; active means well fitted activation curve with a large enough effect in the signal ratio in the repeat runs, not every such curve was filed as active; inconclusive means weak or mixed curves, or effect the other way; inactive means no such curve, though single readings can be large or run the other way; the % refers to the signal ratio; further: potency means the concentration at half of the fitted maximal effect; on activation: on the % scale 0 is the no-effect control and ±100 the full control effect); conditions: HepG2 ARE-bla reporter, beta-lactamase FRET, 16 h; activation: at 73.3 µM (top of the series) unless noted
Summary of the method: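 An ARE-responsive beta-lactamase gene stably integrated in HepG2 cells serves as reporter. After 5 h plating and 16 h compound incubation at 37 C, fluorescence of the B/G FRET substrate was measured.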

[3] = qHTS assay for small molecule activators of the heat shock response signaling pathway - cell viability counter screen (AID 743209); conditions: HSE-bla HeLa viability, CellTiter-Glo luminescence, 5 h; activity change, negative = cytotoxicity: at 62.6 µM (top of the series) unless noted; further: potency means the concentration at half of the fitted maximal effect; nearly all actives have a fitted effect of over 50% in size
Summary of the method: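 Luminescence from CellTiter-Glo, added after the beta-lactamase FRET read, gave the viability signal. Cells were HSE-bla HeLa treated with DMSO-dissolved compounds for 5 h at 37 C following overnight plating.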

[4] = qHTS assay for small molecule activators of the heat shock response signaling pathway (AID 743210; active means well fitted activation curve with a large enough effect in the signal ratio in the repeat runs, with a control signal flat, not every such curve was filed as active; inconclusive means weak or mixed curves; the % refers to the signal ratio; further: potency means the concentration at half of the fitted maximal effect); conditions: HeLa HSE-bla reporter, beta-lactamase ratio, 5 h; activation: at 62.6 µM (top of the series) unless noted
Summary of the method: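 In HSE-bla HeLa cells, 5 h compound incubation (37 C) precedes addition of LiveBLAzer B/G substrate; after 2.5 h at room temperature, fluorescence intensity indicates reporter induction.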

[5] = qHTS assay to identify small molecule agonists of the peroxisome proliferator-activated receptor delta (PPARd) signaling pathway - cell viability counter screen (AID 743211); conditions: PPARd-bla HEK293H viability, CellTiter-Glo luminescence, 17 h; activity change, negative = cytotoxicity: at 62.6 µM (top of the series); further: potency means the concentration at half of the fitted maximal effect; nearly all actives have a fitted effect of over 55% in size
Summary of the method: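 Following 5 h plating at 37 C and 5% CO2, PPARd UAS-bla HEK293H cells took up test compounds for 17 h. Viability was quantified by luminescence 30 min after CellTiter-Glo addition at room temperature.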

[6] = target: Peroxisome proliferator-activated receptor delta (Homo sapiens) (UniProt Q03181); assay: qHTS assay to identify small molecule agonists of the peroxisome proliferator-activated receptor delta (PPARd) signaling pathway (AID 743212; calls by dose curve; further: potency means the concentration at half of the fitted maximal effect); conditions: HEK293H PPARd-UAS-bla, beta-lactamase FRET ratio, 17 h; activation: at 62.6 µM (top of the series) unless noted
Chain of UniProt Q03181 (Q03181 whole entry, looked up): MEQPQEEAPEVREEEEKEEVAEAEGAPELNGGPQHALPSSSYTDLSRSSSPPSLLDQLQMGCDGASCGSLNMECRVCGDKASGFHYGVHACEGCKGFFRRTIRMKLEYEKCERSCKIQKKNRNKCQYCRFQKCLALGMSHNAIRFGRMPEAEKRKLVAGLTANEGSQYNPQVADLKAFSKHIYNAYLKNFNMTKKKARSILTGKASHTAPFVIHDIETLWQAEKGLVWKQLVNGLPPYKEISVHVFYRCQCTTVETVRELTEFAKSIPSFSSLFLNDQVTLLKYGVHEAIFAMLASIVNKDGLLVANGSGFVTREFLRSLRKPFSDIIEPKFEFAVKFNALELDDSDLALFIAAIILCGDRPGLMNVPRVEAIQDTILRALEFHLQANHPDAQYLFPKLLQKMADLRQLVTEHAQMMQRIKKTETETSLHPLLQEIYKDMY
Summary of the method: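 HEK293H UAS-bla reporter cells, human PPARd system; compounds delivered in DMSO after 5 h plating, then at 37 C. Beta-lactamase FRET read, 2 h RT substrate step.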

[7] = qHTS assay to identify small molecule antagonists of the peroxisome proliferator-activated receptor delta (PPARd) signaling pathway - cell viability counter screen (AID 743213); conditions: PPARd-bla HEK293H viability, CellTiter-Glo luminescence, 17 h; viability change, negative = cytotoxic: at 62 µM (top of the series) unless noted; further: potency means the concentration at half of the fitted maximal effect; nearly all actives have a fitted effect of over 50% in size
Summary of the method: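 PPARd-bla HEK293H cells were treated with compounds plus agonist L165041 (300 nM final) for 17 h at 37 C. Viability was then read in the same wells by CellTiter-Glo luminescence after 30 min at room temperature.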

[8] = target: Bile acid receptor (Homo sapiens) (UniProt Q96RI1); assay: qHTS assay to identify small molecule antagonists of the farnesoid-X-receptor (FXR) signaling pathway (AID 743217; active means well fitted inhibition curve with a large enough effect in the signal ratio in the repeat runs, not every such curve was filed as active; inconclusive means weak or mixed curves, or effect the other way; inactive means no such curve, though single readings can be large or run the other way; the % refers to the signal ratio; further: potency means the concentration at half of the fitted maximal effect); conditions: HEK293T FXR-UAS-bla, beta-lactamase ratio, CDCA-stimulated, 16 h; activity change, negative = inhibition: at 62.6 µM (top of the series) unless noted
Chain of UniProt Q96RI1 (Q96RI1 whole entry, looked up): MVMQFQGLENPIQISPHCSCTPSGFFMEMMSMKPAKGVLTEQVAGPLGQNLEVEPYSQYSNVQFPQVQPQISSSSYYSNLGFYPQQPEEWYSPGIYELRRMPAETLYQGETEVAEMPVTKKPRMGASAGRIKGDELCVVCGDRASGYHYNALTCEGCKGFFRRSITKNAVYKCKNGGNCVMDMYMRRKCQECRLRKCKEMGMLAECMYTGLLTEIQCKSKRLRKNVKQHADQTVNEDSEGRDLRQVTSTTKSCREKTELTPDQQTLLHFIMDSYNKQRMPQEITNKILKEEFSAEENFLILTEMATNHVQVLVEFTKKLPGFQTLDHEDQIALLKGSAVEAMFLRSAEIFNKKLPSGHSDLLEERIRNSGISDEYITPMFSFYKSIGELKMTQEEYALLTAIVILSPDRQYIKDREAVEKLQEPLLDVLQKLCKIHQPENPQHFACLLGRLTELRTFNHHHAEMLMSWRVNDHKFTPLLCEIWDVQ
Summary of the method: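 HEK 293T FXR-UAS-bla, 5000 cells/well; compound + CDCA 50 uM final; 16 h, 37 °C; B/G FRET substrate 2 h RT; fluorescence.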

[9] = qHTS assay for small molecule agonists of the antioxidant response element (ARE) signaling pathway - cell viability counter screen (AID 743203; calls by dose curve; further: potency means the concentration at half of the fitted maximal effect; nearly all actives have a fitted effect of over 55% in size); conditions: ARE-bla HepG2 viability, CellTiter-Glo luminescence, 16 h; viability change, negative = cytotoxic: at 73.3 µM (top of the series)
Summary of the method: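 HepG2 cells carrying ARE-driven beta-lactamase; 2,000 cells/well; 5 hrs plating; compound pinned from DMSO; 16 hrs 37C/5% CO2; CellTiter-Glo added; 30 min RT; luminescence.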

[10] = target: Peroxisome proliferator-activated receptor delta (Homo sapiens) (UniProt Q03181); assay: qHTS assay to identify small molecule antagonists of the peroxisome proliferator-activated receptor delta (PPARd) signaling pathway (AID 743215; active means well fitted inhibition curve with a large enough effect in the signal ratio in the repeat runs, not every such curve was filed as active; inconclusive means weak or mixed curves, or effect the other way; inactive means no such curve, though single readings can be large or run the other way; the % refers to the signal ratio;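 further: cells stimulated with agonist L165041 at 300 nM final during compound exposure; on the % scale 0 is the no-effect control and ±100 the full control effect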); conditions: HEK293H PPARd-UAS-bla, beta-lactamase FRET ratio, antagonist, 17 h; ratio activity, negative = inhibition: at 62 µM (top of the series) unless noted
Summary of the method: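 Read-out is beta-lactamase FRET fluorescence, measured 2 h after substrate addition at room temperature. Beforehand, UAS-bla HEK293H cells carrying the PPARd reporter were exposed to compounds with L165041 at 300 nM final for 17 h at 37 C.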
Tags describe the fitted curve by direction and shape or compound fluorescence and quenching.

| SMILES | Potency [1] | Potency [2] | Potency [3] | Potency [4] | Potency [5] | Potency [6] | Potency [7] | Potency [8] | activation [2] | Potency [9] | Potency [10] |
| --- | --- | --- | --- | --- | --- | --- | --- | --- | --- | --- | --- |
| N#Cc1c(Cl)c(Cl)c(Cl)c(C#N)c1Cl | active: 2.41 µM and active: 1.55 µM | inconclusive: 26.8 µM [falling, full curve] and inconclusive: 13.7 µM [falling, full curve] | active: 854 nM and active: 616 nM | inconclusive: 7.33 µM and inconclusive: 3.21 µM | active: 6.79 µM and active: 6.92 µM | inconclusive: 1.91 µM [rising, partial curve] and inconclusive: 1.95 µM [rising, partial curve] | active: 15.2 µM and active: 5.49 µM | inconclusive: 3.03 µM [rising, full curve] and inconclusive: 5.49 µM [rising, full curve] |  |  |  |
| CCOP(=S)(OCC)OC(Cl)C(Cl)(Cl)Cl (centres undefined) | inconclusive: 61.6 µM [cytotoxic, single point] |  |  |  | inconclusive: 61.6 µM [cytotoxic, single point] |  | inconclusive: 490 nM [cytotoxic, full curve, poor fit] |  | inconclusive: 23.7% | inconclusive: 77 µM [cytotoxic, partial curve, poor fit] | inactive |
| O=c1c(C2CC(c3ccc(-c4ccc(Br)cc4)cc3)Cc3ccccc32)c(O)sc2ccccc12 (centres undefined) | active: 13.3 µM | inconclusive: 29.8 µM [rising, partial curve] | inconclusive: 29.8 µM [cytotoxic, partial curve, poor fit] | inconclusive: 8.74 µM |  |  |  | inconclusive: 33.5 µM [single point] |  |  |  |
